The record followed here is the RNAGym collection of RNA variant scans (doi:10.1093/nar/gkz1192).

B1: CPEB3 Ribozyme (parent)
chain: UAACAGGGGGCCACAGCAGAAGCGUUCACGUCGCAGCCCCUGUCAGAUUCUGGUGAAUCUGCGAAUUCUGCUGUAUAUCUC

The source gives no read counts; variants with many changes may rest on few reads.

This data set covers variants of B1. Kind of data set: self-cleavage, relative activity (ratio to wild type); higher = more cleavage; in vitro, sequencing. In a few lines: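 CPEB3 self-cleaving ribozyme mutant libraries were made by rounds of error-prone PCR, barcoded, and transcribed in vitro with T7 RNA polymerase for 5 hours at 37°C. Cleavage occurred during transcription and a 15 min DNase I step before EDTA stop. RNAs were reverse transcribed with template switching and Illumina-sequenced, with DNA sequencing mapping barcodes to variants. Relative activity is the variant's cleaved/total read fraction divided by wild type's (minimum 5 reads), averaged across three batches.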
As to U26A A57G U69C U74A U80C, the self-cleavage stood at 0.54. As for U26C A35G U51A A65G U69G, the self-cleavage amounted to 0.51.

In the case of U26A U41C U49C A56U A75U, the self-cleavage is 0.21.

With U25C U72A A77G C79U, the self-cleavage amounted to 0.07. For U26A U49C A65U A75U, the self-cleavage amounted to 0.12. To U25G A35U A65G belongs 0.19.

Turning to U26C G46A A47G A57G A64G U69C, the self-cleavage is 0.18.

For U26A U66C U69C, the self-cleavage amounted to 0.46. Regarding U26C A64U U69C, the self-cleavage was determined as 0.15.

Take U26C C29G A64G: the self-cleavage worked out at 0.14.

Turning to U26C G36A A45U U67C, the self-cleavage was determined as 0.02. On to U26C C37U A47G U49C U60C, for which the self-cleavage was 0.16. For the variant U25G U51C A65G, the self-cleavage was 0.18. The value for U25G U51C A65U was 0.15.

Turning to U26C C32U A57C, the self-cleavage was determined as 0.07. For U26C U58C U60C A65G, the self-cleavage is 0.14. In the case of U26C A47G A56G A65G, the self-cleavage is 0.08.

On to U26A C38U U49C U51C A56G U78C, for which the self-cleavage amounted to 0.13. The value for U25G U54A U80A was 0.44; that for U26C U31G U41A A56G was 0.27; that for U25G U43A U48C U66C U72G U80C was 0.02. U26A A57G U66C U78C: the self-cleavage came out at 0.13.

For the variant U26A U31C G63C, the self-cleavage worked out at 0.51. The value for U26C C38U U41C was 0.46. For the variant U26A U58C A65G U67A U72C, the self-cleavage worked out at 0.18.

Take U26A G55U U60C: the self-cleavage amounted to 0.22. The value for U26A C27U U49C A65G was 0.12. With U26C A35U U41C, the self-cleavage is 0.26. For the variant U26C A35G A45U U54C, the self-cleavage was determined as 0.79. U25C U58C A65G: the self-cleavage is 0.16. In the case of U26C U31C A35U U43C U49A A57G G73A, the self-cleavage turned out to be 0.25. As for U26A U41A C62U A64G, the self-cleavage was 0.15. To U25C U49A U67A belongs 0.08. Turning to U25C U49A U67C, the self-cleavage worked out at 0.04. On to U26A G33U A56C, for which the self-cleavage is 0.11.

As for U26C U49G G55C, the self-cleavage stood at 0.18. To C27A U51A U54C belongs 0.36; to U25G A35G A45U U72A, 0.22.

U26A U48A U78C: the self-cleavage worked out at 0.17. The value for U26C A56G A64G U66C was 0.06; that for U26A G42U U66G was 0.24; that for C27A A57G A64G U76A was 0.08.

For the variant U26C A45G A56G U67A U69C, the self-cleavage is 0.06. To U26C A35C U58C U80C belongs 0.3; to U26C G73U A77G, 0.99. As for U26C U43C A57G, the self-cleavage worked out at 0.29. Consider U26C A35G C44U U54C A57G C71U, for which the self-cleavage stood at 0.13. Take U26C A35U U43G: the self-cleavage came out at 0.14.

Regarding U26C U58G U66C U72A, the self-cleavage came to 0.11. Consider U26A A28G U54C U67C, for which the self-cleavage amounted to 0.09. Take U26A A47G A65G: the self-cleavage came out at 0.51. The value for U26A A57G U69A was 0.37. In the case of U25C U49C U54A U72G U80C, the self-cleavage worked out at 0.26. To U26C U51A C81U belongs 0.46; to U26C A28U U69C U80C, 0.15; to U26C C68A A75G U78A, 0. For the variant U26C A35U U78A, the self-cleavage was found to be 0.1.

For the variant U26C G46A U54C U60C, the self-cleavage was found to be 0.23. As for U26C G73A A75U U80A, the self-cleavage worked out at 1.16. The value for U26C U43G U49C U78C was 0.31; that for U25C U51A C59A C71A was 0.07.

For U25C U49C U60C C71U, the self-cleavage turned out to be 0.14.

Consider U26C G33A U41A U54C, for which the self-cleavage came to 0.14.

As to U26C A47G A57U, the self-cleavage was 0.2.

For U26A U49C A65G, the self-cleavage amounted to 0.07. U26C U31A A47C: the self-cleavage turned out to be 0.17. With U25G U26A A57G, the self-cleavage is 0.1.

Consider U25C U54C U60A U80A, for which the self-cleavage is 0.18. For the variant U26C G36A G55U A65G U74G, the self-cleavage was 0.07.

Take U26G U41A U67A U76C: the self-cleavage was 0.14. Consider U26C A28U A35U U48C, for which the self-cleavage came to 0.06. Turning to U26C U41C A45U U51A U58C U69C, the self-cleavage is 0.06. The value for U26A C39G A45G U72C was 0.05; that for U26A A35G U41C U49C U66C U80C was 0.24; that for U25G A35U U80G was 0.11. For the variant U26A U31A U41C, the self-cleavage was 0.32.

For U26C A56C U60A, the self-cleavage was 0.4. As for C27A A28U C29U U43C A57U, the self-cleavage worked out at 0.14.

For the variant U26A C29A A56G U76C, the self-cleavage stood at 0.28. To U26C U43C U51G belongs 0.88.

Regarding U26C A45G A56G A77U, the self-cleavage amounted to 0.12.

For U26A U41A U49A A57G A65G U80A, the self-cleavage stood at 0.05.

As for U25C U51C U66C, the self-cleavage was found to be 0.28. On to U26C A35U C40U A56G U58C, for which the self-cleavage worked out at 0.1. Consider U26C U58C U78A, for which the self-cleavage was 0.26. Consider U26A A28U A77C U80C, for which the self-cleavage amounted to 0.47.

In the case of U26A U31C U72A, the self-cleavage turned out to be 0.56. As to U26A C40U U49C G55C U76G U80C, the self-cleavage was 0.06. As to U26C C59A U80G, the self-cleavage was determined as 0.2.

For the variant U26C A64G U80C, the self-cleavage came to 0.44. Turning to U26C A28G C37A, the self-cleavage was 0.1.

Consider U25C U48C A57G, for which the self-cleavage was determined as 0.17. Regarding U25C U48C U72C U78C U80C, the self-cleavage stood at 0.09.

As to U26C G33U A45G U76C, the self-cleavage stood at 0.19.

As to U26C U41A A56G U67C U76C, the self-cleavage is 0.12.

For the variant U26C C38U C44G C59G, the self-cleavage amounted to 0.08. As for U26A U43C U54C U60A A64G, the self-cleavage stood at 0.06. As to U26C U43A A65G U67C, the self-cleavage was found to be 0.15. To U26C A35G U67C A77U C79U belongs 0.35; to U26A U80C C81U, 1.09. In the case of U26C G63U U78C U80C, the self-cleavage came to 0.42. On to U26C A45G U54A U58C, for which the self-cleavage came to 0.08.

Take U26C A28G C44U U72A: the self-cleavage is 0.08. In the case of U25G A28U C29G U54C, the self-cleavage was determined as 0.36. As to U26C A35G C40U U51C, the self-cleavage turned out to be 0.6.

In the case of U26A U41C A47G A57G U72A U78C, the self-cleavage stood at 0.29. Turning to U26A U41C U54C U67C, the self-cleavage turned out to be 0.14. To U26C U74C A75G belongs 0.81; to U26G C32A U41A U54C G63A, 0.11; to U25C U49A C59A, 0.11. Regarding U26C U49C U58A, the self-cleavage stood at 0.16. With U26C G33A U58A A77G, the self-cleavage turned out to be 0.05. Consider U26C A56G U74C A75G, for which the self-cleavage was found to be 0.6. As to U26C U54C U69A, the self-cleavage is 0.24.

Turning to U26A A57G U67C, the self-cleavage came to 0.47. As to U26A U41A U43G C44U A47G U54A, the self-cleavage came to 0.27.

As for U26A U41C U51C A57G, the self-cleavage was found to be 0.35. In the case of U26C U31C U51C A64U, the self-cleavage worked out at 0.14. For U26C A47G G63A U69A, the self-cleavage is 0.17. Take U26C G33A U41C C81A: the self-cleavage came out at 0.2. Regarding U26A U41G G53C U72C, the self-cleavage is 0.08.

As to U26C G30C U41A A45U, the self-cleavage is 0.32. Regarding U26C G42C U72C U78G U80C, the self-cleavage was 0.1.

U26C A28U A47G U67C: the self-cleavage amounted to 0.3. Consider U26C C39U U41C, for which the self-cleavage is 0.37.

As for U26A U54C A65G, the self-cleavage came out at 0.21. With U26A A35U U41C G73U U80C, the self-cleavage turned out to be 0.6. Consider U26C C32G A47U A77G, for which the self-cleavage was 0.06.

Take U26C U49C A56G U67A U76C: the self-cleavage came out at 0.09. As to C27A U43C A56U, the self-cleavage turned out to be 0.1. Consider U26A U31A C40U U58A U72G, for which the self-cleavage was 0.17. For C27A U43A U48C U49C A57G, the self-cleavage was 0.1. As for U26C C34U U54C U72C, the self-cleavage is 0.07. As for U26A A35G U78C, the self-cleavage was 1.31.

As for U25C U60A C71U, the self-cleavage amounted to 0.13. The value for U26C U60C A77U was 0.25; that for U26C A35U U80C was 0.24. Consider U26A G73A U78C, for which the self-cleavage was found to be 0.95. In the case of U26A A64G U72A, the self-cleavage turned out to be 0.34. In the case of U26C A35C C38A, the self-cleavage was 0.21. Consider U25G A28C A45G, for which the self-cleavage was 0.56. Take U26A G30A A45U U48C U69C U72C: the self-cleavage came out at 0.08. For the variant U26C A35G U80C, the self-cleavage came out at 1.18. Turning to U26C A47U A75U, the self-cleavage worked out at 0.24.

In the case of U26A C38A C40A A56G, the self-cleavage came to 0.1.

For U26C A28U U78C, the self-cleavage stood at 0.16. For U26C G36A C40U U48C, the self-cleavage was 0.14. With U26G A35U U72C, the self-cleavage was determined as 0.08.

With C27A U31C A35U U51A, the self-cleavage stood at 0.13.

Take U26C A45G U51C U69C: the self-cleavage stood at 0.14. To U25C U48C A56G A57G C59U belongs 0.14; to U26C A57G C62G, 0.23; to U26A A28G A64G U67C, 0.14. Take U26C U41C A47G C50U: the self-cleavage turned out to be 0.25.

U26C A28G A56U A64U A65G U69C A75G: the self-cleavage was 0.05. To U26C A45G U60A A65G belongs 0.25; to U26C U31A A47G U60G, 0.06. For the variant U26C U49C G55A, the self-cleavage was found to be 0.08. On to U26C U43A U51A A57G, for which the self-cleavage came out at 0.1. To U26C A28U A77G belongs 0.3; to U26C U41A A64U G70C U80C, 0.19; to U26C U41C U54C U67C, 0.09. Consider U26A U43A A45G C59G, for which the self-cleavage worked out at 0.11. In the case of U26A A57G U76A, the self-cleavage was 0.57. To C27A C38A U54C C81A belongs 0.06; to U26A A45C U76C U78C, 0.09.

Turning to U25C U51C U72G, the self-cleavage is 0.27.
